Test results published in PubChem BioAssay AID2147 (National Center for Advancing Translational Sciences (NCATS), 2009).
Among all 230,000 compounds or so, about 3,600 (1.6%) were called active. Inconclusive means that the source gave no clear call. Such entries were picked first, then a sample of the others. The call rests on the fitted dose curve; in most records, active means well fitted inhibition curve with a large enough effect (not every such curve was filed as active); inconclusive means small, poorly fitted or top-dose-only effect, or another doubt; inactive means no such curve, though single readings can be large or run the other way. Potencies of inconclusive entries are doubtful fits and often do not repeat.

The molecules below were run against Lysine-specific demethylase 4E (Homo sapiens) (UniProt B2RXH2) (assay: qHTS Assay for Inhibitors of Human Jumonji Domain Containing 2E (JMJD2E)). Conditions: JMJD2E catalytic domain, FDH-coupled NADH fluorescence (FDH is formaldehyde dehydrogenase); series mostly up to 57.1 µM.
Further: nearly all actives have a fitted effect of over 50% in size.
Potency means the concentration at half of the fitted maximal effect; tags describe the fitted curve by direction and shape.

Sequence of UniProt B2RXH2 (B2RXH2 whole entry, looked up, the tested form may be a part): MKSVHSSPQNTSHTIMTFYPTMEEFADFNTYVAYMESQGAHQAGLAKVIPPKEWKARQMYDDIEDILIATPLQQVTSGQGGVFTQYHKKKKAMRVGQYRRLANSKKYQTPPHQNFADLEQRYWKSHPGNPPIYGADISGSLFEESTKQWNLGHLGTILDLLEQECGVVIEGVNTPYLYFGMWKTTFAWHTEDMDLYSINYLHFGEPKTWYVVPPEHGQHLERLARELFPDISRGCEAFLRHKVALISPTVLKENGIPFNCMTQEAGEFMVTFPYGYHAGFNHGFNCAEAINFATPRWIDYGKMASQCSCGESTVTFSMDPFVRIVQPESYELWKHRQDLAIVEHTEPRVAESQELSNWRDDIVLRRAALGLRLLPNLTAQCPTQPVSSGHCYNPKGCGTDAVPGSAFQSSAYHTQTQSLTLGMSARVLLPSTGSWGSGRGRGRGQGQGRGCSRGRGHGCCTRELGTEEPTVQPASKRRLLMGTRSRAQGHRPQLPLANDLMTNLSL

SMILES | Potency
CCN1CCN(c2ncnc3c2cnn3-c2ccc(Cl)cc2)CC1 | inconclusive: 22.4 µM [inhibitor, single point]
COc1ccc2nc3oc(C(=O)NC4CCN(Cc5ccccc5)CC4)cc3cc2c1 | inconclusive: 3.55 µM [inhibitor, full curve]
CCC(C)(C)C1CCC(=NNC(=S)Nc2ccccc2)CC1 (stereo not given) | inconclusive: 15.8 µM [inhibitor, partial curve]
CCOc1ccccc1CNC(=O)c1cc2oc3ccccc3c2n1C | inconclusive: 31.6 µM [inhibitor, partial curve]
O=C(N/C(=C\c1ccc([N+](=O)[O-])cc1)C(=O)N1CCCCC1)c1ccccc1 | inactive
CC1CCCCN1C(=O)c1cc2nc(-c3ccccc3)cc(-c3ccccc3)n2n1 (stereo not given) | inconclusive: 25.1 µM [inhibitor, partial curve]
CCOc1cc(/C=C(\C#N)C(=O)NCC2CCCO2)ccc1O (stereo not given) | inactive
N.N.O=C(O)C1(C(=O)O)CCC1.[Pt] | active: 11.2 µM
Cc1cc(C)nc(N2CCCC(C(=O)NCc3cccs3)C2)n1 (stereo not given) | inconclusive: 25.1 µM [inhibitor, single point]
OC(COc1ccc2cc(Br)ccc2c1)CN1CCN(c2ccccn2)CC1 (stereo not given) | inconclusive: 39.8 µM [inhibitor, single point]
CC(=O)N1CCN(c2ccc(NCc3ccc(C(C)C)cc3)cc2)CC1 | inconclusive: 35.5 µM [inhibitor, single point]
O=CN/C=C/c1cc(O)ccc1O | inconclusive: 28.2 µM [inhibitor, partial curve]
Cc1occc1C(=O)NNC(=O)Nc1ccc(Cl)c(Cl)c1 | inactive
CCC(C)(C)n1nnnc1CN1CCN(c2nc3ccc(C)cc3cc2C#N)CC1 | inconclusive: 25.1 µM [inhibitor, single point]
COc1cc(NC(=O)CCn2c(=O)[nH]c3ccsc3c2=O)cc(OC)c1 | inconclusive: 39.8 µM [inhibitor, single point]
CC(C)Cn1c(/C=N/Nc2nc3ccccc3[nH]2)nc2ccccc21 | inconclusive: 39.8 µM [inhibitor, single point]
NCC1OC(OC2C(N)CC(N)[C@@H](O)[C@@H]2OC2O[C@H](CO)[C@@H](O[C@@H]3OC(CN)C(O)C(O)C3N)C2O)C(N)C(O)C1O (stereo not given in full) | inactive
Cc1nc(-c2nnc(SCC(=O)Nc3ccc(Cl)cc3)n2C)cs1 | inactive
O=C(O)CCC(=O)Nc1ccc(Sc2ccc([N+](=O)[O-])cc2)cc1 | inactive
CCn1c(COc2cccc3cccnc23)nnc1SC(F)F | inconclusive: 35.5 µM [inhibitor, single point]
